# Laboratory results from PubChem BioAssay AID2202238 (Ras Initiative Chemistry Research Team, Frederick National …, 2025).
# This is one part of the list. The main result of the screen is listed elsewhere. These columns were measured beside it and carry no call.
# Target: GTPase KRas (Homo sapiens) (UniProt P01116)
# Assay: Cysteine mutants labelled by reactive fragments (mass read-out) (AID 2202238)
# Parameters: protein at 5 µM with 500 µM competing thiol for 1.5 h
# Conditions: KRAS G12D cysteine mutants, disulfide tethering, MALDI-TOF labeling, stronger effect = higher value, fragment at 500 µM
# [1] = measured here: G60C mutant labeling
# [2] = measured here: G75C mutant labeling
# [3] = measured here: H94C mutant labeling
# [4] = measured here: I36C mutant labeling
# [5] = measured here: L120C mutant labeling
# [6] = measured here: M67C mutant labeling
# [7] = measured here: M72C mutant labeling
# [8] = measured here: N26C mutant labeling
# [9] = measured here: N86C mutant labeling
# [10] = measured here: P121C mutant labeling
# [11] = measured here: S122C mutant labeling
# [12] = measured here: S136C mutant labeling
# Chain of UniProt P01116 (P01116 whole entry, looked up, the tested form may be a part): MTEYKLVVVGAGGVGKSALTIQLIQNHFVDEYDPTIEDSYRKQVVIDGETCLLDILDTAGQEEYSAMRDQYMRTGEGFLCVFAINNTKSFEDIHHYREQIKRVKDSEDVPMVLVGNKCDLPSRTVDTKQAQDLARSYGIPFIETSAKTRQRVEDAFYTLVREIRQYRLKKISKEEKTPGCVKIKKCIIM
SMILES,percent labeling [1] [%],percent labeling [2] [%],percent labeling [3] [%],percent labeling [4] [%],percent labeling [5] [%],percent labeling [6] [%],percent labeling [7] [%],percent labeling [8] [%],percent labeling [9] [%],percent labeling [10] [%],percent labeling [11] [%],percent labeling [12] [%]
O=C(NCCS)c1cccc(CN2C(=O)CNC2=O)c1,37,19.3,37.5,27.1,41.3,36,29,42.8,38.5,29.8,34.6,43.6
COC(=O)[C@@H]1C[C@H](N2C(=O)CNC2=O)CN1C(=O)CCS,,6.1,24.8,34,33,31.8,12.1,,18.8,27.1,35.5,39.1
O=C(CCS)N1CCCN2c3ccccc3CC2C1 (configuration not stated),,3.8,8.6,12.9,12,20.6,14.8,,0,13.5,12.5,24.2
COc1ccc(C(=O)NCCS)cc1-c1ccnn1C,39.7,24.3,32.7,28.9,43.5,33,53.7,47.6,20.4,23.5,25.6,77.5
COc1cnc(C2CCCN2C(=O)CCS)[nH]c1=O (configuration not stated),,5.7,23.9,30.1,40.6,29.8,9.3,,19.5,31.2,34.4,51.2
O=C(CCS)NCc1ccn(-c2cccc(Cl)c2)n1,,4.1,18.1,19.7,12.2,15.9,34.3,,0,11.6,11.1,20
CCc1ccc(C(=O)Nc2sccc2C(=O)NCCS)cc1,47.4,17.9,33.1,13.3,17.1,9.8,46.5,25.5,9.1,12,4.3,20.8
O=C(NCCS)[C@@H]1CCCO[C@H]1c1ncc[nH]1,21.8,7.4,27.8,24.1,30.6,23.8,10.7,29.3,22.6,28.9,22.2,40.9
O=C(CCC(=O)N1CCN(c2ncccn2)CC1)NCCS,24.4,11.8,26.6,20.8,39.7,24.9,19,32,20.9,27.1,23.4,39
O=C(Cc1ccc(C(F)(F)F)nc1)NCCS,26.9,9.8,29.7,26.9,33.9,29.8,21.4,33.6,19.7,32.2,26.6,37.7
Cc1nc2ccnn2c(C)c1CCC(=O)NCCS,35.1,12.8,27.6,35.8,26.3,30.8,21.2,36.7,21.5,33.5,27.2,41.7
CN1C(=O)c2ccccc2Sc2ccc(NC(=O)CCS)cc21,,11.7,11,41.6,9.6,26.6,38,,13.3,11.2,5.8,23.9
O=C(NCCS)c1csc(-c2ccc(Cl)cc2)c1,17.6,6,9.6,9.6,10.9,8.5,54.1,29.5,9.5,9.1,7.2,13.9
O=C(CCS)NCCn1ncc2ccccc2c1=O,,11.8,30.1,43.8,38.2,41.5,25.7,,29,36.5,33.8,60
CN(C)c1noc(C2CN(C(=O)CCS)C2)n1,,12.3,19.7,25.4,23.2,28.7,16.2,,21,28.6,34.9,48.2
O=C(CCS)Nc1cccc(-n2cccc2)c1,,15.8,20.4,17.4,7.4,9.2,47,,8.3,16.1,13.5,28.8
O=C(CCS)NCCc1cc(Cl)sc1Cl,,16.9,32.8,29.8,32.1,33,58.9,,20.9,30.2,22.5,43.7
O=C(CCS)NC1CCC2(CC1)COCCO2 (configuration not stated),,8.2,28.5,33.6,26.6,28.1,14.4,,19.3,32,38.7,48.6
O=C(NCCS)C1CCCN1C1CCOCC1 (configuration not stated),23.2,11.1,35.4,23.4,32.9,30.2,16.9,27.4,21.7,29.2,26.4,40.8
O=C(NCCS)C1CCN(C2CCCCC2)C1 (configuration not stated),38.3,20.7,38,45.7,30.2,40.4,22.8,46.5,24.3,34.4,25.6,54.5
O=C(Cn1cc(Br)cn1)NCCS,37.9,12.7,32.4,27.1,53.4,26.9,18.8,37.3,28.7,31.6,29.5,39.2
Cc1nn(-c2cncc(Cl)n2)c(C)c1CC(=O)NCCS,28.2,13.7,19.9,14.2,20.9,14.3,20.9,24.6,12.2,15.2,9.6,16.4
N#Cc1cc(Oc2ccc(CC(=O)NCCS)cc2)ccn1,41.9,14.5,29.1,20.5,30.7,22.4,38.5,35.7,19.7,22.3,17.6,26.3
Cc1[nH]c2c(Cl)ccc(Cl)c2c1CCNC(=O)CCS,,14.4,27,19.8,11.3,18.7,42.9,,15,21.4,6.1,32.8
COc1ccc(C)cc1C1(C)NC(=O)N(CC(=O)NCCS)C1=O (configuration not stated),35.4,11.8,32.4,22.8,38.3,25.8,21.8,33.1,23.5,28.5,33.2,37.9
Cc1nc2nccc(C(=O)NCCS)c2[nH]1,33.9,38.7,37.9,29.3,31.6,34.7,45.7,48.7,25,29.5,27.8,55.4
CC(Cc1cncc2ccccc12)C(=O)NCCS (configuration not stated),44.9,20.3,36.4,39.4,28.6,36.8,37.7,39.3,29.8,38.6,27.8,44.8
O=C(CCS)Nc1ccn(CCN2CCOCC2)n1,,12.8,36.4,37.5,34.5,34.6,20.4,,26.5,29.5,35.1,42.5
O=C(CCS)N1CCc2sccc2C1c1ccc(Cl)cc1 (configuration not stated),,24.6,30.9,25.6,19.9,22.5,32.3,,18.2,21.9,5.3,41.5
O=C(CCS)Nc1cc2c(cc1Cl)OCO2,,20.3,29.5,36.3,19.8,24,42.1,,18.9,23,23.5,45.9
